Assay results: the supplement of paper PMC10126150
Sequences with one replicate were seen in a single cluster, so their values are uncertain.

The sequences below were run on ATP (assay: switch fluorescence ratio, 500 uM ATP over buffer (Cy3 cluster intensity, sum of 5 cycles each) (fold (ratio)); higher = stronger signal-on switching upon ATP binding; sequences stand for … in TCGTCGGCAGCGTCAGATGTGTATAAGAGACAGTTTTTTTTTTTTTTTTTTTTTTTTT…TC). Conditions: aptamer strand: ATP DNA aptamer (quencher-CACCTGGGGGAGTATTGCGGAGGAAGG + anchor), 100 nM annealed; ATP concentration: 500 uM; one replicate.
Method in brief: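 The quencher-labelled ATP aptamer, at 100 nM, was annealed to Cy3-labelled switching-strand clusters on a modified Illumina MiSeq flow-cell. The clusters were imaged in selection buffer, then after 15 min with 500 uM ATP at 22 °C, and this buffer/ATP cycle ran five times with NaOH stripping and re-annealing between runs. Per-cluster fluorescence ratios, summed target-cycle over summed buffer-cycle Cy3 intensity, were averaged per switch-domain sequence. Clusters outside 100-1000 RFU were excluded.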
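Also: ATP exposure 15 min at 22 °C before imaging.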

Row | Sequence | switch fluorescence ratio
1 | GATATAGATA | 0.991
2 | GATATCAGGC | 0.966
3 | GATATCATGC | 0.985
4 | GATATCCCGC | 1.13
5 | GATATCCTCT | 0.984
6 | GATATCGAAC | 0.957
7 | GATATCGCAC | 1.28
8 | GATATCTAAC | 1.03
9 | GATATGCTG | 1.07
10 | GATATTGGCC | 1
11 | GATATTTTAC | 1.04
12 | GATCAAAAGA | 1.03
13 | GATCACTGAT | 1.09
14 | GATCAGAGAT | 1.01
15 | GATCAGGGGC | 1.07
16 | GATCATGGTG | 1.04
17 | GATCATTTGG | 0.983
18 | GATCCCAGTT | 1.04
19 | GATCCCCAAA | 0.966
20 | GATCCGGGCT | 1.06
21 | GATCCTGCTC | 1.08
22 | GATCGATCAA | 0.993
23 | GATCGATTCA | 1.05
24 | GATCGCCAGG | 1.03
25 | GATCGGCTCT | 0.957

Row | Sequence | switch fluorescence ratio
26 | GATCGGTTAC | 1.23
27 | GATCGTCCTT | 0.99
28 | GATCGTCGGT | 0.997
29 | GATCGTGATC | 1.02
30 | GATCGTGTTT | 0.999
31 | GATCGTTCAC | 1.01
32 | GATCTAAAAA | 0.985
33 | GATCTCAACC | 0.965
34 | GATCTGAAAA | 0.986
35 | GATCTGACGA | 0.99
36 | GATCTGATCC | 0.971
37 | GATCTGCTCG | 1.02
38 | GATCTTCAAC | 0.994
39 | GATCTTTGTA | 0.949
40 | GATGAACTCT | 1.01
41 | GATGAAGGGT | 0.998
42 | GATGACACGC | 1.08
43 | GATGAGAGCA | 1
44 | GATGCAACGA | 1.13
45 | GATGCATGAA | 1
46 | GATGCCCGG | 1.04
47 | GATGCTAGTT | 0.995
48 | GATGCTGGTT | 1.02
49 | GATGCTTATT | 0.999
50 | GATGGAAGTA | 1.03

Row | Sequence | switch fluorescence ratio
51 | GATGGACGCT | 1.03
52 | GATGGAGGCT | 0.965
53 | GATGGCAAG | 1.07
54 | GATGGCAATG | 1.19
55 | GATGGCACTA | 1.01
56 | GATGGGAAAC | 1.1
57 | GATGGGCCTA | 1.01
58 | GATGGGGTTG | 1
59 | GATGGGTTG | 1.02
60 | GATGGTGATC | 0.995
61 | GATGGTGGCG | 0.924
62 | GATGTACTTA | 0.964
63 | GATGTATAGG | 1.03
64 | GATGTCACAT | 0.962
65 | GATGTCATAG | 0.98
66 | GATGTCCCCC | 1.08
67 | GATGTCTTTG | 1.01
68 | GATGTGACCT | 1.23
69 | GATGTGCGGT | 1.08
70 | GATGTGGTAC | 1.3
71 | GATGTTCCTG | 1.05
72 | GATGTTGCGG | 0.928
73 | GATGTTGGCG | 1.07
74 | GATTAATATT | 0.992
75 | GATTAATCAT | 1.01

Row | Sequence | switch fluorescence ratio
76 | GATTACGTCT | 1.06
77 | GATTATAGGG | 0.997
78 | GATTATTCGC | 1.04
79 | GATTCAAGCT | 1.08
80 | GATTCAGAGA | 0.981
81 | GATTCCGGGT | 1.04
82 | GATTCGGG | 0.958
83 | GATTCGTGCG | 1
84 | GATTCTAGTG | 1.04
85 | GATTCTGGG | 1
86 | GATTCTTTTT | 1.03
87 | GATTGAAGCG | 0.992
88 | GATTGAATCA | 0.998
89 | GATTGCCCAT | 1.01
90 | GATTGCTACA | 0.978
91 | GATTGGCGTC | 1.08
92 | GATTGTCTAT | 1.01
93 | GATTGTTA | 0.978
94 | GATTTAAACG | 0.962
95 | GATTTAATTC | 0.968
96 | GATTTATACA | 1.03
97 | GATTTATTTC | 0.964
98 | GATTTCGAGC | 1.02
99 | GATTTGTCCC | 0.957
100 | GATTTGTCTG | 1.04

Row | Sequence | switch fluorescence ratio
101 | GATTTTTGCG | 0.941
102 | GCAAAAATG | 0.992
103 | GCAAACTCCC | 2.66
104 | GCAAAGGGAG | 1
105 | GCAAATATGA | 1.01
106 | GCAAATGGAT | 1
107 | GCAAATTCA | 1.06
108 | GCAAATTGAA | 0.98
109 | GCAACCTCG | 1.1
110 | GCAACGATGG | 1.01
111 | GCAACTATTC | 1.09
112 | GCAACTCAGT | 1
113 | GCAACTTATC | 1.14
114 | GCAACTTTT | 1.01
115 | GCAAGAAATG | 1.03
116 | GCAAGAGGTG | 1.16
117 | GCAAGCTTAG | 1
118 | GCAAGGATTG | 1.05
119 | GCAAGGCCTG | 0.99
120 | GCAAGGCTT | 1.02
121 | GCAAGGTACA | 1.1
122 | GCAAGTGCCA | 1.01
123 | GCAAGTTT | 1.02
124 | GCAATAAGCG | 1.12
125 | GCAATAGAAC | 2.07

Row | Sequence | switch fluorescence ratio
126 | GCAATAGGAC | 3.45
127 | GCAATATTTG | 1.15
128 | GCAATCCTAG | 1.11
129 | GCAATCTACG | 1.58
130 | GCAATGCAC | 2.03
131 | GCAATGGAAC | 1.79
132 | GCAATGGGCG | 1.02
133 | GCAATGTTCC | 3.93
134 | GCACAACGTT | 1
135 | GCACAATCCC | 1.26
136 | GCACACATCG | 1.01
137 | GCACACTTCT | 1
138 | GCACAGAGGG | 1.03
139 | GCACATCCGC | 1.66
140 | GCACATTTCC | 1.23
141 | GCACCGTACC | 1.57
142 | GCACGCAGCC | 1.38
143 | GCACGCTGCA | 1.08
144 | GCACGTACAG | 1.62
145 | GCACTAAGG | 1.08
146 | GCACTATTCT | 1.05
147 | GCACTCAACC | 1.13
148 | GCACTGCATA | 1.07
149 | GCACTGGGAA | 1
150 | GCAGACGACA | 1.55

Row | Sequence | switch fluorescence ratio
151 | GCAGACGACT | 1.06
152 | GCAGATCCTT | 0.96
153 | GCAGATGGA | 0.989
154 | GCAGATTGTT | 1.03
155 | GCAGCCATGG | 1.05
156 | GCAGCCTGGA | 1.05
157 | GCAGCGAAAT | 1.07
158 | GCAGCGTGGC | 1.07
159 | GCAGCTAGGG | 1.07
160 | GCAGCTTAAT | 1.13
161 | GCAGCTTATG | 1.04
162 | GCAGGAATGA | 1.05
163 | GCAGGACGGT | 1
164 | GCAGGAGAGC | 1.06
165 | GCAGGAGGTT | 1.01
166 | GCAGGCTAGC | 0.936
167 | GCAGGGGAAC | 1.04
168 | GCAGGGGCGA | 1.13
169 | GCAGGGGTAG | 0.965
170 | GCAGGGTAGA | 1.03
171 | GCAGGTCAAA | 0.991
172 | GCAGGTCGGT | 0.965
173 | GCAGGTCGTC | 0.994
174 | GCAGGTGACA | 1.26
175 | GCAGTAGGCG | 1.02

Row | Sequence | switch fluorescence ratio
176 | GCAGTATGTC | 0.91
177 | GCAGTCGGCA | 0.991
178 | GCAGTCTATA | 0.972
179 | GCAGTTATAT | 1
180 | GCAGTTGGGC | 1.07
181 | GCAGTTGTAC | 1.46
182 | GCAGTTTAAC | 1.06
183 | GCAGTTTATC | 1.02
184 | GCATAAAACG | 1.02
185 | GCATAAAGAG | 1.01
186 | GCATAACTAC | 1.41
187 | GCATAGTTCT | 1.02
188 | GCATCGTACT | 1.08
189 | GCATCTCGTT | 0.99
190 | GCATGATCGC | 1.04
191 | GCATGATTGG | 0.989
192 | GCATGCACAT | 0.969
193 | GCATGCATGT | 0.993
194 | GCATGCGGCG | 1.01
195 | GCATGCGGGC | 1.02
196 | GCATGGAGTG | 1.01
197 | GCATGGCTCC | 1.74
198 | GCATGGGAAT | 0.976
199 | GCATGGGGAG | 1.02
200 | GCATGTTTGG | 1.01
